According to PubChem BioAssay AID1030 (National Center for Advancing Translational Sciences (NCATS), 2008):
About 16,000 (7.3%) of roughly 220,000 compounds were called active. Inconclusive results, whose numbers are uncertain, are shown with a selection of clear calls. Calls come from the whole dose curve; as a rule, active = well fitted inhibition curve with a large enough effect (not every such curve was filed as active); inconclusive = small, poorly fitted or top-dose-only effect, or another doubt; inactive = no such curve, though single readings can be large or run the other way. Potencies beside an inconclusive call are fits to weak or partial responses and may not hold up.

The compounds below were run against Aldehyde dehydrogenase 1A1 (Homo sapiens) (UniProt P00352) (assay: qHTS Assay for Inhibitors of Aldehyde Dehydrogenase 1 (ALDH1A1)). Conditions: Purified ALDH1A1, NADH fluorescence, propionaldehyde substrate; series mostly up to 75.3 µM; activity, negative = inhibition: at the top concentration.
UniProt P00352, sequence (P00352 whole entry, looked up): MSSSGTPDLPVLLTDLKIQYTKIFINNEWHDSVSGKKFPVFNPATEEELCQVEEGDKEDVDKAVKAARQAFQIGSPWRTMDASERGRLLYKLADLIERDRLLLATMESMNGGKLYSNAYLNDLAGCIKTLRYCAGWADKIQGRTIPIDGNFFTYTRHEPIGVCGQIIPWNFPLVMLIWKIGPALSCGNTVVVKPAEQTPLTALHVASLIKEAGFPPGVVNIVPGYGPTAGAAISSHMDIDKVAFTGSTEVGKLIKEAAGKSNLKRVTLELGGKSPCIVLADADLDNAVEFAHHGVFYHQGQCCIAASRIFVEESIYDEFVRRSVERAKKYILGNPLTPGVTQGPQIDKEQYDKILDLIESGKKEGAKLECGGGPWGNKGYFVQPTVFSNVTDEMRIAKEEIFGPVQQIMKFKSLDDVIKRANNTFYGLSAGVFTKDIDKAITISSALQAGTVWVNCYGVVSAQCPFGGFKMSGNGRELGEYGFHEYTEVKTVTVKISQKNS
Potency is the fitted concentration of half-maximal effect; tags give direction and shape of the fitted curve.
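Throughout, for activity, negative = inhibition: plate controls were no enzyme wells and a reference inhibitor.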

activity, negative = inhibition, inactive:
CC(C)(C)Cn1c(=O)[nH]c(=O)c2cc([N+](=O)[O-])cnc21 -0.827%
CCCOc1ccc(N2C(=O)CC(SC(=NCC)NCC)C2=O)cc1 (centres undefined) -2.57%
CCCCNc1nc2ccccc2n1CC(=O)N1CCc2ccccc2C1 9.19%
CC1(C)CC(=O)C2=C(C1)N(c1ccccc1)C(=O)C2(O)C(F)(F)F (centres undefined) 6.46%
CC(C)CNC(=O)/C=C/C(=O)O 0.351%
O=C(c1ccc(S(=O)(=O)N2CCOCC2)cc1)N(c1cccc(Cl)c1)C1C=CS(=O)(=O)C1 (centres undefined) -2.31%
O=C(CCN1C(=O)COc2ccccc21)N1CCN(c2ccccc2)CC1 -15.2%
Cc1cc(C(=O)c2ccccc2)c(NC(=O)CN2CCOCC2)s1 0.675%
C/C(CC(C)C)=N\Nc1ccc(S(N)(=O)=O)cc1[N+](=O)[O-] -4.58%
OC1CCN(c2c3c(nc4cc(-c5ccc(Cl)cc5)nn24)CCC3)CC1 -0.782%
O=C(Nc1cccnc1)c1cn(-c2ccccc2)nc1-c1cccs1 -8.91%
O=C1CC(N2CCN(c3ccc(S(=O)(=O)N4CCOCC4)cc3)CC2)C(=O)N1Cc1ccccc1 (centres undefined) -6.93%
COc1ccc(C2=NOC(C(=O)Nc3cccnc3Cl)C2)cc1 (centres undefined) -0.384%
Cc1noc(C)c1C(=O)N1CCC2(CCCN(c3ccncc3)C2)CC1 4.45%
CC(C)NC(=O)Nc1cccs1 -2.1%
CCC1=C2CC[C@H]3C(=O)NC(=O)[C@H]3[C@H]2[C@@]2(Cc3ccccc3)C(=NCC3CC3)OC(=O)N2C1=O -0.75%
COC(=O)N/N=C/c1cc(Cl)cc(Cl)c1OCc1ccc(F)cc1 2.76%
Cc1ccccc1NC(NC(=O)c1cccs1)C(Cl)(Cl)Cl (centres undefined) -2.43%
CCN(Cc1ccccc1)C(=O)C1CCC(CNc2c(N3CCOCC3)c(=O)c2=O)CC1 (centres undefined) -0.441%
COc1ccc2[nH]c3c(=O)n(CCCCC(=O)N4CCCC4)c(=S)[nH]c3c2c1 -7.22%
Cc1noc(C)c1COc1ccc(C(=O)OCc2nnc(-c3ccc(Cl)cc3)o2)cc1 18.9%
Nc1ccc(C(=O)c2cccs2)cc1 -1.33%

Potency, active:
O=C(O)COc1ccc(/C=C2\SC(=Nc3ccccc3)N(c3ccccc3)C2=O)cc1 17.8 µM
CCC(=O)N(Cc1ccco1)c1nc(C(=O)Nc2ccc(Cl)cc2)c(C)s1 22.4 µM
Cc1cc(OCc2cc3c(cc2Cl)OCO3)c2c(C)cc(=O)oc2c1 0.178 µM
Cn1c(Cn2nnc3ccccc32)nnc1SCC(=O)N1CCc2ccccc21 28.2 µM
CCCc1[nH]nc2c1C(c1cccc(OC(=O)c3ccco3)c1)C(C#N)=C(N)O2 (centres undefined) 8.91 µM
Oc1ccc(C2C(c3ccccc3)=NN=C(c3ccccc3F)N2O)c(O)c1 (centres undefined) 8.91 µM
Cc1cc(C(=O)Nc2sc3c(c2C#N)CCCC3)no1 11.2 µM
C[C@@H]1C[C@](C)(C(=O)c2ccco2)C=C1c1ccco1 14.1 µM
CCc1cc2c(=O)n(Cc3ccco3)c(SCC(=O)N3CCCc4ccccc43)nc2s1 4.47 µM
CCOC(=O)c1cnc(SCc2cccc(C)c2)nc1N 25.1 µM
Cc1ccc(-c2n[nH]c(=S)c3ccccc23)cc1 0.355 µM
O=C(/C=C/c1ccnc2ccccc12)c1cccs1 28.2 µM
O=C(CNC(=O)C(c1ccccc1)c1ccccc1)N/N=C/c1ccc(O)c([N+](=O)[O-])c1 12.6 µM
Cc1cc(N2CCN(c3nnnn3-c3ccccc3)CC2)n2ncnc2n1 22.4 µM

Potency, inconclusive:
O=C(OCc1ccccc1)C1=[N+]([O-])OC(C(=O)OCc2ccccc2)C1c1c[nH]c2ccccc12 (centres undefined) 28.2 µM [inhibitor, single point]
Cc1cccc(CNC(=O)c2ccccc2N)c1 28.2 µM [inhibitor, partial curve]
C=CCOC(=O)C1=C(C)N=C2SCCC(=O)N2C1/C=C/c1ccccc1OC (centres undefined) 35.5 µM [inhibitor, single point]
CCCCCc1nnc(NC(=O)C2CCCO2)s1 (centres undefined) 39.8 µM [inhibitor, single point]
O=C(c1ccncc1)N1CCC2(CC1)CN(c1ccccn1)C2 15 µM [inhibitor, partial curve]
COc1ccc(CCN2CN(S(=O)(=O)c3ccccc3)c3nc4ccccc4nc32)cc1 17.8 µM [inhibitor, partial curve]
CCOc1ncccc1C(=O)Nc1cccc(C(=O)Nc2cccc(S(=O)(=O)CCO)c2)c1 39.8 µM [inhibitor, single point]
Cc1nnc(C)n1/N=C/c1ccc(-c2ccccc2)cc1 39.8 µM [inhibitor, single point]
OCCN1CCN(Cc2cc(Cl)c3cccnc3c2O)CC1 39.8 µM [inhibitor, single point]
CCn1cc(C(=O)NC2CCCCC2)c(=O)c2ccc(C)nc21 3.55 µM [inhibitor, full curve]
CC(=O)N1N=C(c2ccccc2)OC1(C)CC(=O)Nc1ccccc1 (centres undefined) 22.4 µM [inhibitor, partial curve]
O=C(NC(=S)Nc1ccccc1N1CCCCC1)c1ccc(-c2cccc([N+](=O)[O-])c2)o1 11.2 µM [inhibitor, partial curve, poor fit]
O=C(Nc1ccc(N2CCN(C(=O)c3ccc(Cl)cc3)CC2)cc1)c1cccnc1 39.8 µM [inhibitor, single point]
Cc1noc(C)c1COC(=O)CCc1ccc(S(=O)(=O)N2CCCCC2)cc1 39.8 µM [inhibitor, single point]
COC(=O)[C@@H](NC(=O)NCc1ccccc1Cl)C(C)C 39.8 µM [inhibitor, single point]
CCOC(=O)C1CCN(C(c2cc3c(C)ccc(C)c3[nH]c2=O)c2nnnn2C2CCCCC2)CC1 (centres undefined) 44.7 µM [inhibitor, single point]
Brc1ccccc1-c1nnc(SCc2nc3ccccc3s2)o1 31.6 µM [inhibitor, single point]
O=C(NC1CCCCC1)c1ccc(Br)o1 39.8 µM [inhibitor, single point]
COc1ccc(CN2CCN(S(=O)(=O)c3ccc(NC(C)=O)cc3)CC2)c(OC)c1OC 35.5 µM [inhibitor, single point]
COc1ccc(O)c(C(=O)c2cnc3c(c2)c(-c2ccc(F)cc2)c(C#N)c(=O)n3C)c1 25.1 µM [inhibitor, single point]
COc1ccccc1OCCn1cc(/C=C(\C#N)C(=O)NCc2cccs2)c2ccccc21 37.7 µM [inhibitor, single point]
CCCCNC(=O)c1cc2c(=O)n3cccc(C)c3nc2n1C 3.16 µM [inhibitor, single point]
COc1cc(C(=O)Nc2ccc(S(=O)(=O)N3CCc4ccccc43)cc2)cc(OC)c1OC 25.1 µM [inhibitor, single point]
CC1CCN(C(=S)NC(=O)C2CCCCC2)CC1 25.1 µM [inhibitor, partial curve, poor fit]
Cc1ccc(C(=O)NCCc2nnc3ccc(SCC(=O)Nc4ccccc4C)nn23)cc1 39.8 µM [inhibitor, single point]
COc1cccc(-c2cc3nc(-c4ccccc4)cc(N4CCCC(O)C4)n3n2)c1 (centres undefined) 35.5 µM [inhibitor, partial curve]
COc1cccc(-c2csc3nnc(SCC(=O)c4ccc(NC(C)=O)cc4)n23)c1 39.8 µM [inhibitor, single point]
CC(C)=CC(=O)Nc1nnc(-c2cccnc2)s1 35.5 µM [inhibitor, single point]
O=S(=O)(Nc1nc2ccccc2nc1-[n+]1cccc(N=C([O-])c2ccccc2Cl)c1)c1ccccc1 44.7 µM [inhibitor, single point]
CCCCn1c(NC(=O)CC)c(C#N)c2nc3ccccc3nc21 14.1 µM [inhibitor, partial curve]
O=C(CSc1nc2c(c(=O)n1-c1ccccc1)SCC2)N1CCN(c2ccccc2)CC1 39.8 µM [inhibitor, single point]
COc1cc(-c2nn3c(C4CCCCC4)nnc3s2)cc(OC)c1OC 14.1 µM [inhibitor, partial curve]
CCOC(=O)/C=c1\s/c(=C\c2ccc(-c3ccccc3)cc2)c(=O)n1CC(=O)NCc1ccc2c(c1)OCO2 39.8 µM [inhibitor, single point]
Cc1ccc(C(=O)CSc2nc(-c3ccccc3)ccc2C#N)cc1 39.8 µM [inhibitor, single point]
Cc1nc(NCCc2ccccc2)c2oc3ccccc3c2n1 39.8 µM [inhibitor, single point]
O=C(O)c1ccccc1NCCO 28.2 µM [inhibitor, partial curve]
FC(F)Oc1ccc(NC(=S)NCc2ccccc2)cc1Cl 44.7 µM [inhibitor, single point]
CCCCc1nc(NCCO)c(C#N)c2c1CCCC2 28.2 µM [inhibitor, partial curve]
